The supplement of paper PMC10126150
Sequences with one replicate were seen in a single cluster, so their values are uncertain.

System: ATP
Test: switch fluorescence ratio, 500 uM ATP over buffer (Cy3 cluster intensity, sum of 5 cycles each) (fold (ratio)); higher = stronger signal-on switching upon ATP binding; sequences stand for … in TCGTCGGCAGCGTCAGATGTGTATAAGAGACAGTTTTTTTTTTTTTTTTTTTTTTTTT…TC
Conditions: aptamer strand: ATP DNA aptamer (quencher-CACCTGGGGGAGTATTGCGGAGGAAGG + anchor), 100 nM annealed; ATP concentration: 500 uM; one replicate
How it was run: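 Cy3-labelled switching-strand clusters on a modified Illumina MiSeq flow-cell were annealed to 100 nM quencher-labelled ATP aptamer, imaged in selection buffer, then imaged after 15 min with 500 uM ATP at 22 °C. Five buffer/ATP cycles ran, with NaOH stripping and re-annealing between them. The fluorescence ratio is summed target-cycle over summed buffer-cycle Cy3 intensity per cluster, averaged per switch-domain sequence. Clusters outside 100-1000 RFU were excluded.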
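Also: ATP exposure 15 min at 22 °C before imaging.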

Row | Sequence | switch fluorescence ratio
1 | TTCTAATTAG | 0.966
2 | TTCTACGCCG | 0.827
3 | TTCTACGGGA | 1.85
4 | TTCTACTGCG | 1
5 | TTCTAGGCC | 0.951
6 | TTCTCAGCCC | 1.05
7 | TTCTCATAAG | 0.988
8 | TTCTCCTCAC | 1.81
9 | TTCTCCTGGT | 1.01
10 | TTCTCGAGA | 0.999
11 | TTCTCGGACT | 1.03
12 | TTCTCGGCCA | 1.14
13 | TTCTCTATCG | 0.954
14 | TTCTCTGAAA | 1.11
15 | TTCTCTGACA | 1.09
16 | TTCTCTTGCT | 1.03
17 | TTCTGAGCGC | 1.1
18 | TTCTGAGGAG | 0.989
19 | TTCTGCATTT | 1.17
20 | TTCTGCCCTT | 1.12
21 | TTCTGCTGGG | 1.61
22 | TTCTGGGGT | 1
23 | TTCTGGTCGG | 1.01
24 | TTCTGTATGA | 0.974
25 | TTCTTAACAA | 1.08

Row | Sequence | switch fluorescence ratio
26 | TTCTTAGTGC | 1.08
27 | TTCTTCAAT | 0.954
28 | TTCTTCCCTT | 1.01
29 | TTCTTCGTCG | 0.966
30 | TTCTTGAACG | 1.07
31 | TTCTTGCAGA | 1.12
32 | TTCTTGCTGA | 1.02
33 | TTCTTGGTAG | 0.936
34 | TTCTTTAGAT | 1.04
35 | TTCTTTCATC | 0.998
36 | TTCTTTGGTC | 1.02
37 | TTCTTTTCGA | 1.01
38 | TTCTTTTTCC | 1.05
39 | TTGAAAAACC | 1.03
40 | TTGAAAAAGA | 1
41 | TTGAAACTTA | 1.03
42 | TTGAAAGCAA | 1
43 | TTGAACCTGC | 1.06
44 | TTGAACTGCA | 1.04
45 | TTGAAGCTAA | 4.93
46 | TTGAAGGCCA | 0.994
47 | TTGAATAATT | 1
48 | TTGAATTTTG | 0.987
49 | TTGACGTTGG | 0.994
50 | TTGACTCCTT | 1.08

Row | Sequence | switch fluorescence ratio
51 | TTGACTGAGC | 0.983
52 | TTGAGAATTT | 0.949
53 | TTGAGACTAA | 1.01
54 | TTGAGATG | 0.983
55 | TTGAGCAAGA | 1.48
56 | TTGAGGACAC | 0.975
57 | TTGAGGCACC | 0.917
58 | TTGAGGCTAC | 2.7
59 | TTGAGGCTGC | 0.994
60 | TTGAGGGTT | 1.02
61 | TTGAGTATTA | 0.956
62 | TTGATAACTG | 1.06
63 | TTGATATTGA | 0.988
64 | TTGATCACCT | 1.16
65 | TTGATCACGC | 1.01
66 | TTGATCAGTT | 0.983
67 | TTGATCATTA | 0.983
68 | TTGATCGTCA | 1.03
69 | TTGATGTGTG | 1
70 | TTGATTTACC | 1.05
71 | TTGCAAATCA | 1.05
72 | TTGCAAGTCG | 1.17
73 | TTGCAAGTTA | 1.05
74 | TTGCACTCTG | 0.98
75 | TTGCACTGT | 1.18

Row | Sequence | switch fluorescence ratio
76 | TTGCACTTCA | 1.04
77 | TTGCAGAGTA | 1.08
78 | TTGCAGCTCG | 0.977
79 | TTGCATATTC | 1.16
80 | TTGCATCACG | 1.06
81 | TTGCCACGGG | 1.25
82 | TTGCCAGTAG | 0.993
83 | TTGCCATTAA | 0.998
84 | TTGCCCCTGT | 0.998
85 | TTGCCCGCTT | 1.06
86 | TTGCCCGGGT | 0.98
87 | TTGCCCTAAG | 0.982
88 | TTGCCCTCAC | 0.998
89 | TTGCCCTTTA | 0.968
90 | TTGCCGACGA | 1.01
91 | TTGCCGACTT | 0.998
92 | TTGCCTCGGA | 1.02
93 | TTGCGATAAC | 2.08
94 | TTGCGATAGT | 1.06
95 | TTGCGATGTG | 1.03
96 | TTGCGATTAG | 0.995
97 | TTGCGCCTTA | 0.984
98 | TTGCGCGGCG | 0.997
99 | TTGCGGAATG | 0.98
100 | TTGCGGATTG | 1.04

Row | Sequence | switch fluorescence ratio
101 | TTGCGGCGTT | 0.989
102 | TTGCGTGACC | 1.1
103 | TTGCGTGTAC | 1.03
104 | TTGCTAGACC | 1.02
105 | TTGCTAGGTC | 1.02
106 | TTGCTATACT | 2.45
107 | TTGCTCCCTT | 1.03
108 | TTGCTCCTGG | 1.01
109 | TTGCTCTCAA | 1.02
110 | TTGCTGAATG | 1.02
111 | TTGCTGGAAC | 0.985
112 | TTGCTGGACT | 1.01
113 | TTGCTTATGT | 1.02
114 | TTGCTTCTGT | 0.986
115 | TTGCTTGTAG | 0.965
116 | TTGGAAAACG | 0.993
117 | TTGGAAACGC | 1.04
118 | TTGGAATACG | 1.14
119 | TTGGACCGGG | 0.982
120 | TTGGACTGCG | 0.902
121 | TTGGACTGCT | 1.01
122 | TTGGAGCAGC | 1.99
123 | TTGGAGCCCC | 1.02
124 | TTGGAGTCGC | 1.02
125 | TTGGAGTTGC | 0.969

Row | Sequence | switch fluorescence ratio
126 | TTGGATAAGT | 1
127 | TTGGATTGGT | 0.994
128 | TTGGATTTCG | 0.997
129 | TTGGCACGGT | 0.99
130 | TTGGCATATA | 1.05
131 | TTGGCATGCC | 1.01
132 | TTGGCCGACA | 1.01
133 | TTGGCGACAA | 0.985
134 | TTGGCGAGTG | 0.952
135 | TTGGCGGGTC | 0.998
136 | TTGGCTAAAC | 1.38
137 | TTGGCTGTA | 1
138 | TTGGGAGTCT | 0.982
139 | TTGGGATATC | 1
140 | TTGGGATCG | 0.969
141 | TTGGGGATCA | 0.956
142 | TTGGGGATCC | 0.973
143 | TTGGGTCT | 1.05
144 | TTGGTACTTG | 0.979
145 | TTGGTAGGCG | 0.974
146 | TTGGTATGCT | 0.981
147 | TTGGTCACAG | 0.985
148 | TTGGTCTACT | 0.972
149 | TTGGTCTGCG | 0.943
150 | TTGGTGCAGG | 1.07

Row | Sequence | switch fluorescence ratio
151 | TTGGTGGCT | 0.916
152 | TTGGTGGTAA | 0.983
153 | TTGGTGTAGG | 1.01
154 | TTGGTTCAAC | 0.967
155 | TTGGTTCATC | 1.01
156 | TTGGTTTCTG | 0.977
157 | TTGTAACTTG | 0.981
158 | TTGTACGGTT | 1.02
159 | TTGTACGTAT | 1.03
160 | TTGTACTTTA | 1.02
161 | TTGTAGACCA | 1.04
162 | TTGTAGTT | 0.965
163 | TTGTATACGG | 0.977
164 | TTGTATCGTA | 0.993
165 | TTGTCAGCCA | 1.05
166 | TTGTCAGGGA | 1.04
167 | TTGTCATATT | 1.03
168 | TTGTCATCGG | 0.978
169 | TTGTCATGTA | 0.998
170 | TTGTCCTTGG | 1.04
171 | TTGTCGACAT | 1
172 | TTGTCGCGAA | 0.976
173 | TTGTCGGAGA | 1
174 | TTGTCGTAGG | 0.953
175 | TTGTCTAAAT | 1.03

Row | Sequence | switch fluorescence ratio
176 | TTGTCTGAGG | 0.96
177 | TTGTGAAGAG | 0.973
178 | TTGTGAGAAC | 1.03
179 | TTGTGAGTCA | 0.952
180 | TTGTGAGTCG | 0.99
181 | TTGTGAGTTA | 1.01
182 | TTGTGATGGG | 0.994
183 | TTGTGCCGTC | 0.909
184 | TTGTGCGTGT | 1
185 | TTGTGCTTTT | 1.03
186 | TTGTGGCACT | 0.988
187 | TTGTGGCATG | 0.991
188 | TTGTGGGCTC | 1.01
189 | TTGTGGTTAA | 1.02
190 | TTGTGTACAA | 1.02
191 | TTGTGTCGAA | 0.986
192 | TTGTGTGCAT | 0.999
193 | TTGTTACATT | 1.01
194 | TTGTTAGACT | 1
195 | TTGTTATGGA | 1.01
196 | TTGTTCCTGT | 0.978
197 | TTGTTGATAG | 0.968
198 | TTGTTGCGTC | 1.07
199 | TTGTTGGAAC | 1.27
200 | TTGTTTAGA | 0.994
